Laboratory results: PubChem BioAssay AID463173 (ICCB-Longwood Screening Facility, Harvard Medical School, 2010)
Several values for one entry are separate records, joined by “and”; a condition that tells them apart may be missing. Equal entries are not always repeated. The whole screen tested about 52,000 compounds, of which about 1,700 (3.3%) were called active. No stated cut-off is given here; in the data, active means survival mostly below about 52% (no sharp cut-off); inactive means mostly above about 56%. This is one part of the list.

These compounds were tested on Wild type (assay: growth inhibition of S. aureus wild type versus tarO mutant, primary screen, teichoic acid synthesis inhibitors, RN4220, OD600 (AID 463173)). Settings: S. aureus RN4220 wild type/DeltatarO growth, OD600, 18 h, active compounds read low, screened at 18.75 µg/mL (by protocol).

Row | SMILES | survival
1 | CCCS(=O)(=O)N1CCC(n2c(C)nc3cccnc32)CC1 | inactive: 79%
2 | CCc1ccc(C(=O)c2cn(CC(=O)Nc3cc(OC)ccc3OC)c3ccc(Cl)cc3c2=O)cc1 | inactive: 77%
3 | CC(=O)N1CCc2c(sc3c2c(=O)n(-c2ccccc2Cl)c(=O)n3Cc2cccc(C)c2)C1 | inactive: 81%
4 | CC(C)(C)C1CCc2c(sc(NC(=O)c3noc4c3CCCC4)c2C#N)C1 (configuration not stated) | inactive: 89%
5 | COc1ccccc1NC(=O)CSc1cn(CC(=O)N2CCCC2)c2ccccc12 | inactive: 96%
6 | CC(=O)c1cccc(NC(=O)CCc2c(C)nc3nc(CN)nn3c2C)c1 | inactive: 84%
7 | CCOC(=O)N1CCN(Cc2nc3cc(NC(=O)c4ccccc4Cl)ccc3n2C(C)C)CC1 | inactive: 94%
8 | O=C(c1ccco1)N1CCN(C2CC(=O)N(c3ccc(F)c(Cl)c3)C2=O)CC1 (configuration not stated) | inactive: 91%
9 | N#Cc1ccc(NC(=O)CNCC2CCCCC2)cc1 | inactive: 103%
10 | CCOC(=O)c1ccc(NC(=O)N2CC3CCCN3c3ccccc32)cc1 (configuration not stated) | inactive: 112%
11 | Cc1ccc2nc(-c3cccs3)c(Nc3ccc4c(c3)OCCO4)n2c1 | inactive: 124%
12 | CCC1CCCCN1C(=O)CSc1nnc(-c2ccc(OC)c(OC)c2)o1 (configuration not stated) | inactive: 75%
13 | CCC(=O)N1CCc2cc(S(=O)(=O)NCc3ccc(C)cc3)ccc21 | inactive: 82%
14 | COc1ccc(Cl)cc1Nc1ccc2cc(S(=O)(=O)N3CCCCC3)ccc2n1 | inactive: 59%
15 | NC(=O)COc1cccc(-n2cnnn2)c1 | inactive: 101%
16 | CCOc1ccc(NC(=O)c2ccc(F)c(S(=O)(=O)N(Cc3ccc(C(=O)OC)cc3)Cc3ccc(OC)c(OC)c3)c2)cc1 | inactive: 60%
17 | O=C(Cn1cc(C(=O)c2ccco2)c2ccccc21)Nc1ccccc1 | inactive: 115% and inactive: 54%
18 | CCOc1ccc(N2CC(C)Cn3c2nc2c3c(=O)n(Cc3c(F)cccc3Cl)c(=O)n2C)cc1 (configuration not stated) | inactive: 82%
19 | CN(C)c1ncc(C(=O)NCc2ccc(Cl)cc2)cn1 | inactive: 74%
20 | COc1ccccc1NC(=O)C1=C(C)Nc2nc3ccccc3n2C1c1ccccc1Cl (configuration not stated) | inactive: 63%
21 | Cc1nc(N)nc2c1C(=O)CC(c1ccccc1)C2 (configuration not stated) | inactive: 98%
22 | Cc1ccc(-c2nnn3c2nc(NC2CCC(C)CC2)c2ccccc23)cc1 (configuration not stated) | active: 4%

Row | SMILES | survival
23 | Cc1cc(OCC(=O)N2CCC(c3nc4ccccc4s3)CC2)ccc1Cl | inactive: 18%
24 | O=C(CSc1ncc(-c2ccccc2)[nH]1)Nc1cccc(Br)c1 | inactive: 13%
25 | CCOCCc1nnc(NC(=O)C(=O)c2cc(C)n(-c3ccc(Cl)cc3)c2C)s1 | inactive: 91%
26 | Cc1cc2n(n1)CCCN2C(=O)Nc1ccc(F)c(Cl)c1 | inactive: 71%
27 | CCN(Cc1ccccc1)C(c1cccnc1)c1nnnn1Cc1ccccc1 (configuration not stated) | inactive: 106%
28 | COC(=O)CN1C(C(=O)c2ccccc2)=C(OC(=O)c2ccc(F)cc2)c2ccccc2S1(=O)=O | inactive: 88%
29 | Cc1ccc(S(=O)(=O)c2cnc(SCC(=O)Nc3ccc4c(c3)OCCO4)[nH]c2=O)cc1C | inactive: 85%
30 | COc1cccc(NC(=O)c2ccc(CN3CCN(c4ccccc4)CC3)cc2)c1 | inactive: 122%
31 | COc1cccc(-c2nc3c(C#N)c[nH]n3c2NC2CCCC2)c1OC | inactive: 79%
32 | CC1CCCCN1C(=O)c1ccc2c(c1)N(Cc1ccc(F)cc1)C(=O)c1ccccc1S2(=O)=O (configuration not stated) | inactive: 87%
33 | CCN(CCCNC(=O)c1cc2c(=O)n(CC)c3ccccc3c2s1)Cc1ccccc1 | inactive: 85%
34 | COc1cccc(-n2c(C)nc3cc(C(=O)O)ccc32)c1 | inactive: 143%
35 | COc1cc2nc(NC(=O)c3ccc(S(=O)(=O)N4CCc5ccccc54)cc3)sc2cc1OC | inactive: 75%
36 | CCc1ccccc1NC(=O)c1sc(-n2nc(C)c(Cc3ccccc3)c2C)nc1C | inactive: 97%
37 | COc1ccc(CNC(=O)C2CCN(S(=O)(=O)c3ccc4c(c3)CCCN4C(C)=O)CC2)cc1 | inactive: 77%
38 | Cc1ccc(C)c(CSc2nnc3[nH]c(=O)cc(-c4ccccc4)n23)c1 | inactive: 86%
39 | CCOC(=O)c1c(S(=O)(=O)NCC(=O)NCc2ccccc2Cl)c(C)n(C)c1C | inactive: 89%
40 | CCCn1cc(S(=O)(=O)c2cc(C)ccc2C)c(=O)c2cc(F)c(N3CCN(CC)CC3)cc21 | inactive: 89%
41 | Cc1cccc(C)c1-n1ncc(C(=O)N2CCN(c3ncccn3)CC2)c1C1CCN(C(=O)OC(C)(C)C)CC1 | inactive: 76%
42 | Cc1cccc(NC(=O)C2CCN(S(=O)(=O)c3ccc4c(c3)CCCN4C(=O)C3CCC3)CC2)c1 | inactive: 74%
43 | Cn1c(COc2ccccc2)n[nH]c1=S | inactive: 107%
44 | COCCCn1c(=O)c2sccc2n2c(CCCC(=O)NC3CCC(C)CC3)nnc12 (configuration not stated) | inactive: 98%

Row | SMILES | survival
45 | COc1ccc(NC(=O)CSc2cn(CCNC(=O)c3c(F)cccc3F)c3ccccc23)cc1 | inactive: 81%
46 | O=S(=O)(NCc1ccc2c(c1)OCO2)c1cccc2nsnc12 | inactive: 104%
47 | COc1ccc(C(=O)N(Cc2ccc(N(C)C)cc2)CC2CCCO2)cc1 (configuration not stated) | inactive: 84%
48 | COc1cc(NC(=O)CSc2nc(-c3ccc(C(C)C)cc3)no2)cc(OC)c1 | inactive: 90%
49 | CCCN1CCN(CCCNC(=O)Cn2nc(C)n3c(cc4c(OC)cccc43)c2=O)CC1 | inactive: 90%
50 | Cc1ccc(NC(=O)CSc2nc3ccc(NC(=O)CCc4ccccc4)cc3s2)cc1 | inactive: 92%
51 | O=c1[nH]cc(COCC(F)(F)C(F)F)c(=O)[nH]1 | inactive: 111%
52 | CCN1CCN(Cc2c(O)ccc3c(=O)c(Oc4ccccc4C(C)C)c(C(F)(F)F)oc23)CC1 | inactive: 78%
53 | O=C(N1CCCC1)N1CCC(c2ccc3c(c2)OCO3)CC1 | inactive: 112%
54 | CCN(C(=O)Cn1c(=O)n(Cc2ccccc2)c(=O)c2c1c1cc(OC)ccc1n2C)c1ccccc1 | inactive: 71%
55 | COc1ccc(-c2noc(-c3ccc(NC4CCCC4)c([N+](=O)[O-])c3)n2)cc1OC | inactive: 86%
56 | Cc1ccccc1CNC(=O)c1ccc2nc(C(C)C)oc2c1 | inactive: 92%
57 | COc1cc(Cl)c(C)cc1NC(c1ccccc1)c1nnc(-c2ccccc2Cl)o1 (configuration not stated) | inactive: 75%
58 | Cc1ccc(CNC(=O)c2cc3ccc4cccnc4c3[nH]2)cc1 | active: 0%
59 | COc1ccc(C2=Nc3ccc(OC(F)(F)F)cc3NC(c3cccnc3)=N2)cc1 | inactive: 78%
60 | Cc1ccc(C)c(N2CCN(S(=O)(=O)c3cn(C)c(C)n3)CC2)c1 | inactive: 68%
61 | CC(=O)Nc1ccc2nc(NC(=O)CS(=O)(=O)c3ccc(C)cc3)sc2c1 | inactive: 72%
62 | CCC(C)n1c(=N)c(C(=O)NC2CCCCC2)cc2c(=O)n3ccccc3nc21 (configuration not stated) | inactive: 89%
63 | Cc1ccc2c(=O)cc(C(=O)Nc3sc4c(c3C(=O)NCC3CCCO3)CCCC4)oc2c1C (configuration not stated) | inactive: 84%
64 | O=C(Nc1nc(-c2ccc3c(c2)CCN3C(=O)C2CCCCC2)cs1)c1ccco1 | inactive: 87%
65 | Cc1ccc(Cl)cc1NC(=O)CCc1c(C)nc2c3cccnc3nn2c1C | inactive: 96%
66 | O=C(c1cccc(Cl)c1)N1c2ncnn2C2(CCCCC2)[C@@H]2CCCC[C@@H]21 | inactive: 75%

Row | SMILES | survival
67 | Cc1ccc2c(c1)N(C(=O)N1CCC(C(=O)NCCc3ccccc3)CC1)CC(C)O2 (configuration not stated) | inactive: 86%
68 | COc1ccc(-c2ccc3c(N)c(C(=O)NCc4ccc(C)cc4)sc3n2)cc1 | inactive: 101%
69 | CC(C)(C)OC(=O)N1CCC(c2c(C(=O)NCCN3CCOCC3)cnn2-c2ccc(F)cc2)CC1 | inactive: 89%
70 | CSc1nnc(-c2ccc(S(=O)(=O)N3CCCC3)cc2)n1C | inactive: 101%
71 | O=C(COc1ccc(F)cc1)Nc1nnc(SCc2cc(=O)n3ccccc3n2)s1 | inactive: 70%
72 | CCOc1ccc(-c2nonc2NC(=O)c2oc3cc(C)ccc3c2C)cc1OCC | inactive: 112%
73 | COc1ccc(C)cc1NC(=O)C(Cc1ccccc1)NS(=O)(=O)c1ccc(Br)s1 (configuration not stated) | inactive: 132%
74 | COc1ccc(N2Cc3cccc(C(=O)Nc4ccc(Cl)cc4)c3C2=O)cc1 | inactive: 87%
75 | Cc1cc(Cl)ccc1NC(=O)CN1C(=O)COc2ccc(S(=O)(=O)Nc3ccccc3)cc21 | inactive: 87%
76 | O=C(Nc1nc2n(n1)C(c1ccccc1)C=C(c1ccc(Cl)cc1)N2)c1ccco1 (configuration not stated) | inactive: 54%
77 | COc1cccc(Cn2c(SCc3ccc(C(=O)N4CCCCC4)cc3)nc3ccncc32)c1 | inactive: 79%
78 | COc1ccc(CCNc2nc(C)cc(C)n2)cc1OC | inactive: 122%
79 | CCOC(=O)C1CCCN(C(=O)c2ccc3c(c2)sc2nc(-c4ccc(C)cc4C)cn23)C1 (configuration not stated) | inactive: 58%
80 | COc1ccc(N(CCC#N)S(=O)(=O)c2ccc(Cl)cc2)cc1 | inactive: 102%
81 | Cc1ccc(CN(Cc2ccco2)C(=O)COc2cccc(C)c2C)o1 | inactive: 81%
82 | COc1cc(NC(=O)c2ccc3c(Cl)c4c(nc3c2)CCC4)cc(OC)c1OC | inactive: 76%
83 | CC(=O)c1cccc(-n2c(=O)c3c4c(sc3n(CC(=O)Nc3ccccc3F)c2=O)CN(C(C)=O)CC4)c1 | inactive: 130%
84 | O=C(COc1ccc([N+](=O)[O-])cc1)N1CCC(c2nc3ccccc3s2)CC1 | inactive: 84%
85 | CCOC(=O)Cn1c(=O)c2c(nc(N3CCOCC3)n2Cc2ccccc2)n(C)c1=O | inactive: 84%
86 | CC(C)(CC(=O)OCC(=O)Nc1ccccc1F)CC1=NS(=O)(=O)c2ccccc2N1 | inactive: 60%
87 | CCOc1ccc(N(C(C)C(=O)NCCSc2ccc(Cl)cc2)S(C)(=O)=O)cc1 (configuration not stated) | inactive: 73%
